Source: the RNAGym collection of RNA variant scans (doi:10.1101/gad.245936.114)
This sample is rich in variants without activity.

B1: tRNA (parent)
chain: CUCUCGGUAGCCAAGUUGGUUUAAGGCGCAAGACUUUAAUUUAUCACUACGAAAUCUUGAGAUCGGGCGUUCGACUCGCCCCCGGGAGAUUUUUUCCUCGAGCAA

Variants of: B1
Assay: nonsense suppression (GFP-seq) (ratio to wild type); higher = more function; SUP4oc tRNA, yeast GFP reporter sort-seq
Outline: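 Sorted GFP/RFP bins of yeast were each Illumina-sequenced with a phred ≥30 cutoff; the cells held a genome-integrated ochre-suppressor tRNA variant from a library with ~3% random mutations, a galactose-driven GFP ochre reporter, and RFP. Culture was in raffinose/galactose medium containing 80 mg/L adenine. Nonsense suppression, termed GFPSEQ, is the median GFP/RFP of the bins weighted by each variant's estimated cell share per bin, relative to the unmutated parent tRNA, for variants reaching ≥100 reads and ≥30 cells.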

Point of comparison: CUCUCGGUAGCCAAGUUGGUUUAAGGCGCAAGACUUUAAUUUAUCACUACGAAAUCUUGAGAUCGGGCGUUUGACUCGCACCCGGGCGAUUUUUUCCUCGAGCAA [C72U C80A A87C], nonsense suppression 0.714. Against it:
- CUCUCGGUAGCCAAGUUGGUUUAAGGCGCAAGACUUUAAUUUAUCACUACGAAAUCUUGAGAUCGGGCGUUCAACCCGCCCCCGCGAGAUUUUUUCCUCGAGCAA [G73A U76C G85C] — lower, ≤ 0.026
- CUCUCGGUAGCCAAGUUGGUUUAAGGCGCAAGACUUUAAUUUAUCACUACGAAAUCUUGAGAUCGGGCGUUCCACUCGCCCCCGGGGGAUUUUUUCCUCGAGCAA [G73C A87G] — lower, ≤ 0.026
- CUCUCGGUAGCCAAGUUGGUUUAAGGCGCAAGACUUUAAUUUAUCACUACGAAAUCUUGAGAUCGGGCGUUCUACUCGCCCCCGGGAAAUUUUUUCCUCGAGCAA [G73U G88A] — lower, ≤ 0.026
- CUCUCGGUAGCCAAGUUGGUUUAAGGCGCAAGACUUUAAUUUAUCACUACGAAAUCUUGAGAUCGGGCGUUAGACUCGGCCCCGGGAGAUUUUUUCCUCGAGCAA [C72A C79G] — lower, ≤ 0.026
- CUCUCGGUAGCCAAGUUGGUUUAAGGCGCAAGACUUUAAUUUAUCACUACGAAAUCUUGAGAUCGGGCGUUCGCCUGGUCCCCGGGAGAUUUUUUCCUCGAGCAA [A74C C77G C79U] — lower, ≤ 0.026
- CUCUCGGUAGCCAAGUUGGUUUAAGGCGCAAGACUUUAAUUUAUCACUACGAAAUCUUGAGAUCGGGCGUUCAACUCGCCCCCUGGAGAUUUUUUCCUCGAGCAA [G73A G84U] — lower, ≤ 0.026
- CUCUCGGUAGCCAAGUUGGUUUAAGGCGCAAGACUUUAAUUUAUCACUACGAAAUCUUGAGAUCGGGCGUUGGACUCGCCCCCGCGAGAUUUUUUCCUCGAGCAA [C72G G85C] — lower, ≤ 0.026
- CUCUCGGUAGCCAAGUUGGUUUAAGGCGCAAGACUUUAAUUUAUCACUACGAAAUCUUGAGAUCGGGCGUUGGACUCGCCCCCGUGAGAUUUUUUCCUCGAGCAA [C72G G85U] — lower, ≤ 0.026
- CUCUCGGUAGCCAAGUUGGUUUAAGGCGCAAGACUUUAAUUUAUCACUACGAAAUCUUGAGAUCGGGCGUUCCGCUCGCCCCCGGGAGAUUUUUUCCUCGAGCAA [G73C A74G] — lower, ≤ 0.026
- CUCUCGGUAGCCAAGUUGGUUUAAGGCGCAAGACUUUAAUUUAUCACUACGAAAUCUUGAGAUCGGGCGUUAGACGCGCCCCCGGGAGAUUUUUUCCUCGAGCAA [C72A U76G] — lower, ≤ 0.026
- CUCUCGGUAGCCAAGUUGGUUUAAGGCGCAAGACUUUAAUUUAUCACUACGAAAUCUUGAGAUCGGGCGUUAGACACGCCCCCGGGAGAUUUUUUCCUCGAGCAA [C72A U76A] — lower, ≤ 0.026
- CUCUCGGUAGCCAAGUUGGUUUAAGGCGCAAGACUUUAAUUUAUCACUACGAAAUCUUGAGAUCGGGCGUUCCACUCGCCCCCCGGAGAUUUUUUCCUCGAGCAA [G73C G84C] — lower, ≤ 0.026
- CUCUCGGUAGCCAAGUUGGUUUAAGGCGCAAGACUUUAAUUUAUCACUACGAAAUCUUGAGAUCGGGCGUUGGACUCGGCCCCGGAAGAUUUUUUCCUCGAGCAA [C72G C79G G86A] — lower, ≤ 0.026
- CUCUCGGUAGCCAAGUUGGUUUAAGGCGCAAGACUUUAAUUUAUCACUACGAAAUCUUGAGAUCGGGCGUUCAACUCGCCCCCGGGACAUUUUUUCCUCGAGCAA [G73A G88C] — lower, ≤ 0.026
- CUCUCGGUAGCCAAGUUGGUUUAAGGCGCAAGACUUUAAUUUAUCACUACGAAAUCUUGAGAUCGGGCGUUCCACUCGACCCCGGGAGAUUUUUUCCUCGAGCAA [G73C C79A] — lower, ≤ 0.026
- CUCUCGGUAGCCAAGUUGGUUUAAGGCGCAAGACUUUAAUUUAUCACUACGAAAUCUUGAGAUCGGGCGUUCAACUCGCCCCCGGCACAUUUUUUCCUCGAGCAA [G73A G86C G88C] — lower, ≤ 0.026
- CUCUCGGUAGCCAAGUUGGUUUAAGGCGCAAGACUUUAAUUUAUCACUACGAAAUCUUGAGAUCGGGCGUUCGCCUCGCCCCCGGGAGUUUUUUUCCUCGAGCAA [A74C A89U] — lower, ≤ 0.026
- CUCUCGGUAGCCAAGUUGGUUUAAGGCGCAAGACUUUAAUUUAUCACUACGAAAUCUUGAGAUCGGGCGUUCGCCUCGCCCCCGGGAGGUUUUUUCCUCGAGCAA [A74C A89G] — lower, ≤ 0.026
- CUCUCGGUAGCCAAGUUGGUUUAAGGCGCAAGACUUUAAUUUAUCACUACGAAAUCUUGAGAUCGGGCGUGCAACGCGCCCCCCGGAGAUUUUUUCCUCGAGCAA [U71G G73A U76G G84C] — lower, ≤ 0.026
- CUCUCGGUAGCCAAGUUGGUUUAAGGCGCAAGACUUUAAUUUAUCACUACGAAAUCUUGAGAUCGGGCGUUCUACUCGCCCCCCGGAGAUUUUUUCCUCGAGCAA [G73U G84C] — lower, ≤ 0.026
- CUCUCGGUAGCCAAGUUGGUUUAAGGCGCAAGACUUUAAUUUAUCACUACGAAAUCUUGAGAUCGGGCGUUCCACUCCCCCCCGGGAUAUUUUUUCCUCGAGCAA [G73C G78C G88U] — lower, ≤ 0.026
- CUCUCGGUAGCCAAGUUGGUUUAAGGCGCAAGACUUUAAUUUAUCACUACGAAAUCUUGAGAUCGGGCGUUCAACUCGCCCCCGAGAGAUUUUUUCCUCGAGCAA [G73A G85A] — higher, 1.03
- CUCUCGGUAGCCAAGUUGGUUUAAGGCGCAAGACUUUAAUUUAUCACUACGAAAUCUUGAGAUCGGGCGUUCAACUCGCCCCCGUGAGAUUUUUUCCUCGAGCAA [G73A G85U] — lower, 0.285
- CUCUCGGUAGCCAAGUUGGUUUAAGGCGCAAGACUUUAAUUUAUCACUACGAAAUCUUGAGAUCGGGCGUUAGACUCGCGCCCGGGAGAUUUUUUCCUCGAGCAA [C72A C80G] — lower, ≤ 0.026
- CUCUCGGUAGCCAAGUUGGUUUAAGGCGCAAGACUUUAAUUUAUCACUACGAAAUCUUGAGAUCGGGCGUUCUACUCGCCACCGGGAGAUUUUUUCCUCGAGCAA [G73U C81A] — lower, ≤ 0.026
- CUCUCGGUAGCCAAGUUGGUUUAAGGCGCAAGACUUUAAUUUAUCACUACGAAAUCUUGAGAUCGGGCGUGCGACUCGCCCCCGGGAGAUUUUUUCCUCGAGCAA [U71G] — lower, ≤ 0.026
